Experimental findings from article PMC9911399, “Two distinct binding modes provide the RNA-binding protein RbFox with extraordinary sequence specificity” are described below.

Positions count from the first letter of the chain named. The list shows a part of the results.

Sequences and labels used below:
T1: RBFOX1 RRM RbFoxmut (Fox-RRM*) (Homo sapiens, UniProt Q9NWB1 109-208, R118D;E147R;N151S;E152T)
T1 sequence: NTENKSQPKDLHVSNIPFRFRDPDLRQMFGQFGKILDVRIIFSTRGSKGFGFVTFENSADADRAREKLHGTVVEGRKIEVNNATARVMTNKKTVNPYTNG

B1: ACAAGCC (DNA:RNA)
RNA: GGGAGACCGGAAUUCAGAUUGUCCACAAGCCUUAAAUCCCGUCGUAGCCACCA
DNA 1: CAATCTGAATTCCGGTCTCCC
DNA 2: TGGTGGCTACGACGGGATT
B2: GGGACAC (DNA:RNA)
RNA: B1 RNA with A25G, C26G, A27G, G29C, C30A
DNA 1: CAATCTGAATTCCGGTCTCCC
DNA 2: TGGTGGCTACGACGGGATT
B3: UGGACCA (DNA:RNA)
RNA: B1 RNA with A25U, C26G, A27G, G29C, C31A
DNA 1: CAATCTGAATTCCGGTCTCCC
DNA 2: TGGTGGCTACGACGGGATT
B4: AGAAUCC (DNA:RNA)
RNA: B1 RNA with C26G, G29U
DNA 1: CAATCTGAATTCCGGTCTCCC
DNA 2: TGGTGGCTACGACGGGATT
B5: AGGACCG (DNA:RNA)
RNA: B1 RNA with C26G, A27G, G29C, C31G
DNA 1: CAATCTGAATTCCGGTCTCCC
DNA 2: TGGTGGCTACGACGGGATT
B6: UAGCCAA (DNA:RNA)
RNA: GGGAGACCGGAAUUCAGAUUGUCCUAGCCAAUUAAAUCCCGUCGUAGCCACCA
DNA 1: CAATCTGAATTCCGGTCTCCC
DNA 2: TGGTGGCTACGACGGGATT
B7: GAGAAUG (DNA:RNA)
RNA: B6 RNA with U25G, C28A, C29A, A30U, A31G
DNA 1: CAATCTGAATTCCGGTCTCCC
DNA 2: TGGTGGCTACGACGGGATT
B8: GAUUACG (DNA:RNA)
RNA: B1 RNA with A25G, C26A, A27U, A28U, G29A, C31G
DNA 1: CAATCTGAATTCCGGTCTCCC
DNA 2: TGGTGGCTACGACGGGATT
B9: ACCUAUU (DNA:RNA)
RNA: B1 RNA with A27C, A28U, G29A, C30U, C31U
DNA 1: CAATCTGAATTCCGGTCTCCC
DNA 2: TGGTGGCTACGACGGGATT
B10: UCGCUUG (DNA:RNA)
RNA: B6 RNA with A26C, C29U, A30U, A31G
DNA 1: CAATCTGAATTCCGGTCTCCC
DNA 2: TGGTGGCTACGACGGGATT
B11: GGAAUUC (DNA:RNA)
RNA: B1 RNA with A25G, C26G, G29U, C30U
DNA 1: CAATCTGAATTCCGGTCTCCC
DNA 2: TGGTGGCTACGACGGGATT
B12: UCUUCGC (DNA:RNA)
RNA: B1 RNA with A25U, A27U, A28U, G29C, C30G
DNA 1: CAATCTGAATTCCGGTCTCCC
DNA 2: TGGTGGCTACGACGGGATT
B13: AUCCUGA (DNA:RNA)
RNA: B6 RNA with U25A, A26U, G27C, C29U, A30G
DNA 1: CAATCTGAATTCCGGTCTCCC
DNA 2: TGGTGGCTACGACGGGATT
B14: GUGCCUU (DNA:RNA)
RNA: B6 RNA with U25G, A26U, A30U, A31U
DNA 1: CAATCTGAATTCCGGTCTCCC
DNA 2: TGGTGGCTACGACGGGATT
B15: CCAAAGU (DNA:RNA)
RNA: B1 RNA with A25C, G29A, C30G, C31U
DNA 1: CAATCTGAATTCCGGTCTCCC
DNA 2: TGGTGGCTACGACGGGATT
B16: GCAAUAA (DNA:RNA)
RNA: B1 RNA with A25G, G29U, C30A, C31A
DNA 1: CAATCTGAATTCCGGTCTCCC
DNA 2: TGGTGGCTACGACGGGATT
B17: ACGGGGG (DNA:RNA)
RNA: B1 RNA with A27G, A28G, C30G, C31G
DNA 1: CAATCTGAATTCCGGTCTCCC
DNA 2: TGGTGGCTACGACGGGATT
B18: GCUGAUU (DNA:RNA)
RNA: B1 RNA with A25G, A27U, A28G, G29A, C30U, C31U
DNA 1: CAATCTGAATTCCGGTCTCCC
DNA 2: TGGTGGCTACGACGGGATT
B19: ACCGACA (DNA:RNA)
RNA: B1 RNA with A27C, A28G, G29A, C31A
DNA 1: CAATCTGAATTCCGGTCTCCC
DNA 2: TGGTGGCTACGACGGGATT
B20: UGUAUCU (DNA:RNA)
RNA: B1 RNA with A25U, C26G, A27U, G29U, C31U
DNA 1: CAATCTGAATTCCGGTCTCCC
DNA 2: TGGTGGCTACGACGGGATT
B21: AUGUCAA (DNA:RNA)
RNA: B6 RNA with U25A, A26U, C28U
DNA 1: CAATCTGAATTCCGGTCTCCC
DNA 2: TGGTGGCTACGACGGGATT
B22: GGGUUCG (DNA:RNA)
RNA: B1 RNA with A25G, C26G, A27G, A28U, G29U, C31G
DNA 1: CAATCTGAATTCCGGTCTCCC
DNA 2: TGGTGGCTACGACGGGATT
B23: GUGGUAG (DNA:RNA)
RNA: B6 RNA with U25G, A26U, C28G, C29U, A31G
DNA 1: CAATCTGAATTCCGGTCTCCC
DNA 2: TGGTGGCTACGACGGGATT
B24: UAUAAAG (DNA:RNA)
RNA: B6 RNA with G27U, C28A, C29A, A31G
DNA 1: CAATCTGAATTCCGGTCTCCC
DNA 2: TGGTGGCTACGACGGGATT
B25: AAGUACA (DNA:RNA)
RNA: B6 RNA with U25A, C28U, C29A, A30C
DNA 1: CAATCTGAATTCCGGTCTCCC
DNA 2: TGGTGGCTACGACGGGATT
B26: UUGGAUU (DNA:RNA)
RNA: B6 RNA with A26U, C28G, C29A, A30U, A31U
DNA 1: CAATCTGAATTCCGGTCTCCC
DNA 2: TGGTGGCTACGACGGGATT
B27: UAAUGUU (DNA:RNA)
RNA: B1 RNA with A25U, C26A, A28U, C30U, C31U
DNA 1: CAATCTGAATTCCGGTCTCCC
DNA 2: TGGTGGCTACGACGGGATT
B28: CCAGACC (DNA:RNA)
RNA: B1 RNA with A25C, A28G, G29A
DNA 1: CAATCTGAATTCCGGTCTCCC
DNA 2: TGGTGGCTACGACGGGATT
B29: AUGCGUC (DNA:RNA)
RNA: B1 RNA with C26U, A27G, A28C, C30U
DNA 1: CAATCTGAATTCCGGTCTCCC
DNA 2: TGGTGGCTACGACGGGATT
B30: CAUAAAA (DNA:RNA)
RNA: B6 RNA with U25C, G27U, C28A, C29A
DNA 1: CAATCTGAATTCCGGTCTCCC
DNA 2: TGGTGGCTACGACGGGATT
B31: ACGGCCU (DNA:RNA)
RNA: B1 RNA with A27G, A28G, G29C, C31U
DNA 1: CAATCTGAATTCCGGTCTCCC
DNA 2: TGGTGGCTACGACGGGATT

This experiment addresses T1, RBFOX1 RRM RbFoxmut (Fox-RRM*). As to the kind of experiment: EMSA; HiTS-Eq, 1 nM pool, 10 min; buffer printed only for the single-RNA assays: 10 mM Tris pH 7.5, 150 mM NaCl, 3.4 mM EDTA, 0.001% NP-40, 30 C. Particulars: tags: His6 N-terminal (pET28a); label: 5' 32P. The essentials:
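Purified RbFox RRM, wild type or mutant, was incubated for 10 min in 50 µL with 1 nM of a 5′-radiolabelled RNA pool carrying 7 randomized nucleotides, whose flanks were annealed to DNA oligonucleotides, over a series of increasing protein concentrations. Unbound RNA was resolved on 8% native PAGE, cut out, reverse-transcribed, barcoded by PCR and sequenced on an Illumina HiSeq 2500. Relative association constants were derived from changes in read counts for each RNA species versus the control reaction and normalised to the cognate motif.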
(In EMSA bound probe runs differently from free probe, usually more slowly.)
As to B1, the binding signal was 0.054 KA relative to UGCAUGU.

Take B2: the binding signal is 0.0733 KA relative to UGCAUGU.

As to B3, the binding signal was 0.0665 KA relative to UGCAUGU.

In the case of B4, the binding signal is 0.111 KA relative to UGCAUGU.

Consider B5, for which the binding signal is 0.183 KA relative to UGCAUGU.

In the case of B6, the binding signal is 0.0818 KA relative to UGCAUGU.

For B7, the binding signal is 1.5 KA relative to UGCAUGU.

For B8, the binding signal was 0.0988 KA relative to UGCAUGU.

As for B9, the binding signal was 0.107 KA relative to UGCAUGU.

Take B10: the binding signal was 0.281 KA relative to UGCAUGU.

In the case of B11, the binding signal was 0.112 KA relative to UGCAUGU.

As for B12, the binding signal is 0.121 KA relative to UGCAUGU.

B13: the binding signal was 0.0899 KA relative to UGCAUGU.

Regarding B14, the binding signal is 0.0747 KA relative to UGCAUGU.

As for B15, the binding signal was 0.138 KA relative to UGCAUGU.

Turning to B16, the binding signal was 0.0707 KA relative to UGCAUGU.

For the molecule B17, the binding signal is 0.118 KA relative to UGCAUGU.

On to B18, for which the binding signal is 0.101 KA relative to UGCAUGU.

For the molecule B19, the binding signal is 0.0551 KA relative to UGCAUGU.

In the case of B20, the binding signal was 0.296 KA relative to UGCAUGU.

Turning to B21, the binding signal is 0.105 KA relative to UGCAUGU.

B22: the binding signal was 0.4 KA relative to UGCAUGU.

As to B23, the binding signal was 0.181 KA relative to UGCAUGU.

With B24, the binding signal was 0.0905 KA relative to UGCAUGU.

Take B25: the binding signal was 0.0952 KA relative to UGCAUGU.

Take B26: the binding signal was 0.106 KA relative to UGCAUGU.

B27: the binding signal was 0.0816 KA relative to UGCAUGU.

With B28, the binding signal is 0.11 KA relative to UGCAUGU.

Consider B29, for which the binding signal is 0.17 KA relative to UGCAUGU.

As for B30, the binding signal was 0.0891 KA relative to UGCAUGU.

On to B31, for which the binding signal was 0.0862 KA relative to UGCAUGU.
